Variants at the background level are over-represented here.

To fix the notation:
B1: tRNA (parent)
chain: CUCUCGGUAGCCAAGUUGGUUUAAGGCGCAAGACUUUAAUUUAUCACUACGAAAUCUUGAGAUCGGGCGUUCGACUCGCCCCCGGGAGAUUUUUUCCUCGAGCAA

This data set covers variants of B1. The experiment in a line: nonsense suppression (GFP-seq) (ratio to wild type); higher = more function; SUP4oc tRNA, yeast GFP reporter sort-seq. A digest of the protocol:
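Yeast were grown in raffinose/galactose medium with 80 mg/L adenine, each strain bearing a genome-integrated ochre-suppressor tRNA variant from a ~3% random-mutation library, a galactose-driven GFP ochre reporter, and RFP. After sorting into GFP/RFP bins, every bin was sequenced on an Illumina platform at phred ≥30. The GFPSEQ value, a measure of nonsense suppression, is the weighted bin median GFP/RFP relative to the unmutated parent tRNA, using each variant's estimated cell share per bin as the weight. Only variants with ≥100 reads and ≥30 cells were included.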
Consider A9G G67C, for which the nonsense suppression is not above 0.026.

Turning to U21A G59C C80A, the nonsense suppression was not above 0.026.

On to G6C C27U C34A C64U, for which the nonsense suppression is not above 0.026.

Consider A54U U57G G65C, for which the nonsense suppression is not above 0.026.

Regarding C1G U4A C12A, the nonsense suppression is not above 0.026.

As to C1G A31C G78C, the nonsense suppression was not above 0.026.

U4A C11U G28U A54C: the nonsense suppression is not above 0.026.

As for U17C G26U, the nonsense suppression was not above 0.026.

On to C27U G65C G88U, for which the nonsense suppression is not above 0.026.

With U2A G7C U8G, the nonsense suppression was not above 0.026.

With G15A A31U G65C, the nonsense suppression was not above 0.026.

With U8A C27A A62C, the nonsense suppression is not above 0.026.

In the case of U8A C12U A33G, the nonsense suppression was not above 0.026.

In the case of U4G A14G C79G, the nonsense suppression was not above 0.026.

Regarding G7U A30G G32A A33C G69U U70C G86C, the nonsense suppression is not above 0.026.

In the case of A60C G86A, the nonsense suppression is not above 0.026.

On to G7U A54C, for which the nonsense suppression was 0.0394.

Take C3U C11U A13C: the nonsense suppression is not above 0.026.

Regarding C12A C34G U63A G65A A87U A89U, the nonsense suppression is not above 0.026.

Turning to C5G G10C U57G C68A, the nonsense suppression is not above 0.026.

Regarding A9G G10C U58C, the nonsense suppression was not above 0.026.

Turning to U17G A30C, the nonsense suppression is not above 0.026.

On to U20G G26U G32U, for which the nonsense suppression is not above 0.026.

As to U8G A14C C75A C81A G86A, the nonsense suppression was not above 0.026.

With C1A A9C C27G G69C, the nonsense suppression was not above 0.026.

As for U2C G6U C34A A60U, the nonsense suppression is not above 0.026.

For the variant U16C A60G G86C, the nonsense suppression is not above 0.026.

On to U20G G85U, for which the nonsense suppression is 0.81.

G7U G69C: the nonsense suppression is not above 0.026.

Turning to A24G A31U, the nonsense suppression was not above 0.026.

Take U20C C72G: the nonsense suppression was 0.063.

U2C U20C: the nonsense suppression is 0.0975.

In the case of C3U G26A C34A, the nonsense suppression is not above 0.026.

Consider G10U A30U U63G, for which the nonsense suppression is not above 0.026.

C29U U76A G84U: the nonsense suppression is not above 0.026.

Consider U55A A60C G61U C79U, for which the nonsense suppression is not above 0.026.

Turning to C3A G59U, the nonsense suppression was not above 0.026.

Take A13U G61A G67U: the nonsense suppression is not above 0.026.

Turning to C12U G18C C56A, the nonsense suppression was not above 0.026.

As for U35C C77U, the nonsense suppression is not above 0.026.

G32A C68U: the nonsense suppression was not above 0.026.

U4A U16G G59C A74G: the nonsense suppression was not above 0.026.

Turning to U63C G86U, the nonsense suppression was not above 0.026.

As to G15U U20A G65U C72U G86A, the nonsense suppression is not above 0.026.

For the variant A24U C34G U58G G59U C83A, the nonsense suppression was not above 0.026.

Consider A13U U21C U35C C68U G84U, for which the nonsense suppression was not above 0.026.

For U8G U21G G85A, the nonsense suppression was not above 0.026.

A23G G59A C82G: the nonsense suppression is not above 0.026.

With U57G G66C, the nonsense suppression was not above 0.026.

On to C5U G10C, for which the nonsense suppression was not above 0.026.

On to G6C G88C, for which the nonsense suppression was not above 0.026.

Take A30C U71G A74C: the nonsense suppression was not above 0.026.

As for A23C U55C, the nonsense suppression was not above 0.026.

For the variant C12A C34G G84A, the nonsense suppression was not above 0.026.

With C11G A24C, the nonsense suppression was not above 0.026.

As for C27G C81G, the nonsense suppression was not above 0.026.

As for U20G A23G G25U C56U, the nonsense suppression is not above 0.026.

Regarding C3G A13U U16C A24U U55A G86C, the nonsense suppression was not above 0.026.

In the case of A13U C34A C77A, the nonsense suppression is not above 0.026.

As for G10U C11U U63A C82A, the nonsense suppression is not above 0.026.

For A60C A74U, the nonsense suppression is not above 0.026.

In the case of G6C A9G A24G G69C A74G A87G G88U, the nonsense suppression was not above 0.026.

Take G26U A33G G78C G84A: the nonsense suppression was not above 0.026.

Consider C27U U35G, for which the nonsense suppression is not above 0.026.

Take U2G A33G C72A G84A: the nonsense suppression was not above 0.026.

On to A14C G32C A54G A60C C64U, for which the nonsense suppression was not above 0.026.

As to A9U G65A C82A, the nonsense suppression is not above 0.026.

As for G7C A31G C34A C56A, the nonsense suppression was not above 0.026.

With G61C C68A A74U, the nonsense suppression is not above 0.026.

Regarding C11U A30C U57C C79G A89G, the nonsense suppression was not above 0.026.

As to A33U U35C U55C, the nonsense suppression is not above 0.026.

In the case of G10C G73C A87U, the nonsense suppression is not above 0.026.

On to G28A A31G, for which the nonsense suppression was 0.98.

Turning to C29U C56A A89C, the nonsense suppression was not above 0.026.

For G6A A9U A24G U63A, the nonsense suppression was not above 0.026.

With A14C C56A C81G, the nonsense suppression was not above 0.026.

For the variant G10C G25U C27G A33C G86A, the nonsense suppression was not above 0.026.

As to U2A U22C, the nonsense suppression is not above 0.026.

Consider U35G U55C C68G U71G, for which the nonsense suppression is not above 0.026.

On to U63C A74G A87C, for which the nonsense suppression is not above 0.026.

For the variant U22G A31G A33G G61C C81U, the nonsense suppression is not above 0.026.

For the variant G65A A87U, the nonsense suppression is not above 0.026.

Consider U4A A13C C83U G84C, for which the nonsense suppression is not above 0.026.

With U55A G84A, the nonsense suppression was not above 0.026.

A24U: the nonsense suppression was 0.487.

On to A54U G65C A89G, for which the nonsense suppression was not above 0.026.

Regarding U4C G6U, the nonsense suppression turned out to be 0.959.

In the case of A24U G61A, the nonsense suppression stood at 0.124.

As for G25A G69C G88C, the nonsense suppression is not above 0.026.

As for U2C G85A, the nonsense suppression was not above 0.026.

Turning to A9U U76G G85C, the nonsense suppression is not above 0.026.

Consider A33C G67A U71G, for which the nonsense suppression was not above 0.026.

U8C A23C G73C: the nonsense suppression was not above 0.026.

In the case of U22C A33G G59A, the nonsense suppression was not above 0.026.

With G32U G88A A89C, the nonsense suppression is not above 0.026.

On to A13G U17G A62U, for which the nonsense suppression was not above 0.026.

With A9U G32C A62C U76C C79U, the nonsense suppression is not above 0.026.

U63A U70C G88U: the nonsense suppression is not above 0.026.

Consider C77G G88U, for which the nonsense suppression was not above 0.026.

Consider U55C U70G, for which the nonsense suppression was not above 0.026.

Take G69C C80G: the nonsense suppression was not above 0.026.

In the case of C3G, the nonsense suppression is not above 0.026.

For A23C G32A A60U A62U, the nonsense suppression was not above 0.026.

Take G10U C27A A31U U55G U57G G85U: the nonsense suppression is not above 0.026.

C56U C75A A87C: the nonsense suppression is not above 0.026.

For the variant A9G G78A, the nonsense suppression was not above 0.026.

Consider C5U G10U U58A A60C G66C U76A, for which the nonsense suppression is not above 0.026.

Consider G10C U21A C72U A87U, for which the nonsense suppression is not above 0.026.

In the case of U16A G59U G84C, the nonsense suppression was not above 0.026.

Take U22G A30C: the nonsense suppression is not above 0.026.

Consider C3U A24C, for which the nonsense suppression was 0.0575.

Turning to U22C U35C U70A A87C A89G, the nonsense suppression is not above 0.026.

Consider U16G A62C U71A C81U, for which the nonsense suppression was not above 0.026.

Consider C34U A60G, for which the nonsense suppression came out at 0.0428.

Regarding G6A U22G, the nonsense suppression is not above 0.026.

Take U20C U22A C34G A87C: the nonsense suppression was not above 0.026.

On to A24G A31U C34U A74G, for which the nonsense suppression was not above 0.026.

Regarding C3U G6U, the nonsense suppression is 0.0343.

As to C34U G69C, the nonsense suppression was not above 0.026.

Consider G10A G15U A89G, for which the nonsense suppression is not above 0.026.

Regarding A31G U58C G61U A62C G84C, the nonsense suppression is not above 0.026.

For the variant U17C A24U A54C, the nonsense suppression was not above 0.026.

For C11G C12U, the nonsense suppression was not above 0.026.

Turning to U63G G86C, the nonsense suppression is not above 0.026.

As to A9U C11U C27U A31G G69U, the nonsense suppression is not above 0.026.

Turning to A30C C72U, the nonsense suppression is not above 0.026.

For the variant U22A C34U C79U G85A, the nonsense suppression is not above 0.026.

Consider G69A G85C G86C, for which the nonsense suppression was not above 0.026.

Consider U4G G25U U70C U76C, for which the nonsense suppression was not above 0.026.

For the variant G28C U55G G66U G67U, the nonsense suppression was not above 0.026.

As to G15U A23U G67C, the nonsense suppression was not above 0.026.

For the variant G65U C83A, the nonsense suppression was not above 0.026.

Consider A14U G18U, for which the nonsense suppression was not above 0.026.

Regarding G15U C75G C77A, the nonsense suppression is not above 0.026.

As to G6A U16G C68U G84U A87U, the nonsense suppression was not above 0.026.

Take C11A U17A U20A C34U A54C: the nonsense suppression was not above 0.026.

C1G G6A A62U G84C: the nonsense suppression is not above 0.026.

On to A30G C56A C77U, for which the nonsense suppression is not above 0.026.

Regarding U2C G15C G28U A87G A89C, the nonsense suppression was not above 0.026.

In the case of G69U U76C G78C, the nonsense suppression is not above 0.026.

As to C11G G25C, the nonsense suppression is not above 0.026.

As for A74G G84U, the nonsense suppression was not above 0.026.

Take C11A G26U C34A: the nonsense suppression is not above 0.026.

Regarding G28U A62G, the nonsense suppression was not above 0.026.

On to U58C G86A, for which the nonsense suppression is not above 0.026.

In the case of G59C G66A, the nonsense suppression was not above 0.026.

On to U8A G69A G73A C80A, for which the nonsense suppression is not above 0.026.

In the case of U58A C82G, the nonsense suppression was not above 0.026.

With U63A G67A, the nonsense suppression was not above 0.026.

Consider C1U A33G U57C, for which the nonsense suppression was not above 0.026.

Consider C1G U17G A54G, for which the nonsense suppression is not above 0.026.

Take U8C C11A C81G: the nonsense suppression was not above 0.026.

Take U21C U70C G85A: the nonsense suppression was not above 0.026.

Consider U57C C82A, for which the nonsense suppression is not above 0.026.

For the variant C5U G7U C77U, the nonsense suppression is not above 0.026.

Consider U20A A60C G85U, for which the nonsense suppression is not above 0.026.

For C1A G25U C81U, the nonsense suppression is not above 0.026.

C27A G32U G69A: the nonsense suppression was not above 0.026.

As to U71C C82G G84C, the nonsense suppression is not above 0.026.

As to G7U C27U G73A, the nonsense suppression is not above 0.026.

Turning to C3U U17A, the nonsense suppression turned out to be 0.194.

With U55G C72U, the nonsense suppression is not above 0.026.

On to U55G G61C C75A, for which the nonsense suppression was not above 0.026.

As to A30G G88U, the nonsense suppression is not above 0.026.

Consider A13G A74C C77U, for which the nonsense suppression is not above 0.026.

With A30C U35G G59C G84A, the nonsense suppression is not above 0.026.

As for G28U G78A, the nonsense suppression amounted to 0.0292.
